# From article PMC4336329 (PLoS ONE, 2015)
# About 14,000 (4.5%) of roughly 310,000 compounds showed an effect of 50% or more. The effect is printed as a negative number. The list shows a part of the results.
# Biological target: human ether-à-go-go-related gene (hERG) potassium channel (human, UniProt Q12809)
# Test: primary screen, population patch clamp on CHO cells stably expressing hERG
# 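Note: peak tail current of the secondary pulse compared with the same well before compound.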
# Sequence of human ether-à-go-go-related gene (hERG) potassium channel (Q12809 whole entry, looked up): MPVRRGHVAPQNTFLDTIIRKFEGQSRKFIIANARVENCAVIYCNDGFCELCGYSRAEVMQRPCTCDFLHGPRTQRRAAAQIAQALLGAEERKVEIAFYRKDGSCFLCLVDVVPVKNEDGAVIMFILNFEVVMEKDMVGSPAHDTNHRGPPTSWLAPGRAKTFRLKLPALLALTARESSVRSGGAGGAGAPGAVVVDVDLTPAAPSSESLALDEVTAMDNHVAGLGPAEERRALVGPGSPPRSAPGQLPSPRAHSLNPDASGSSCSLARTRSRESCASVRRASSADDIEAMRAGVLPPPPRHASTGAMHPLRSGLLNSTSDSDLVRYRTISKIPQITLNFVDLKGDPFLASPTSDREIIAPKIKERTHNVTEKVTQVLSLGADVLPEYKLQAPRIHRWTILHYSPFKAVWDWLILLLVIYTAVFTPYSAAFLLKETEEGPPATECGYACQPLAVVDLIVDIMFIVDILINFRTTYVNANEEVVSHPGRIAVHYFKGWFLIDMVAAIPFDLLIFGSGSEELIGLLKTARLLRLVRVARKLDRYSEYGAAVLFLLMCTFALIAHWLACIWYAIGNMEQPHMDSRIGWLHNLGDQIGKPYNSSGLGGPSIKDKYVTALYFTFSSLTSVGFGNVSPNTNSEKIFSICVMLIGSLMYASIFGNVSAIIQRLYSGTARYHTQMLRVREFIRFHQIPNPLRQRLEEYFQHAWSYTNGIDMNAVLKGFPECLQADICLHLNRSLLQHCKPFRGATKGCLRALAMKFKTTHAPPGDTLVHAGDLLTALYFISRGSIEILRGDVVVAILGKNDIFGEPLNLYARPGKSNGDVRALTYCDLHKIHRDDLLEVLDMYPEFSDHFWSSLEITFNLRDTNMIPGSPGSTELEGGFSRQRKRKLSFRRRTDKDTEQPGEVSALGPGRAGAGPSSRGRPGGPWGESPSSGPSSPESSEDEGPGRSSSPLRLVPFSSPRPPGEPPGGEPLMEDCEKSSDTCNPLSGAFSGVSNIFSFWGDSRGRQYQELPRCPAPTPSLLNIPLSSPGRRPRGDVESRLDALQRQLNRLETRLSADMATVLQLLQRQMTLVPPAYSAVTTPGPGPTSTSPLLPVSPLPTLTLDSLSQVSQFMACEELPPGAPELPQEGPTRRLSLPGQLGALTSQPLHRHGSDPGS
row,Compound,"hERG current change (%, negative = inhibition) at 10uM"
1,COC(=O)N/N=C\c1c(C)[nH]n(-c2ccccc2)c1=O,19.4%
2,COC(=O)C1=C(C)Nc2nnnn2C1c1ccccc1Cl (stereo not drawn),-2.51%
3,O=C(Nc1ccc(N2CCOCC2)cc1)c1cc2c(s1)CCCC2,3.49%
4,CNc1c(NC(=O)COc2ccc(Cl)cc2)c(=O)oc2ccccc12,-37.2%
5,CC(=O)N1CCC(N(CCN2CCOCC2)C(=S)Nc2cc(C)ccc2C)CC1,10.9%
6,COc1ccc2cc(C(=O)C3CCCN(C(=O)CCc4cnn(C)c4)C3)ccc2c1 (stereo not drawn),-8.6%
7,O=C(Nc1cccc2ncccc12)c1ccc(Cl)cc1,16.5%
8,C=CCn1c(SCC(=O)Nc2cccc(OC)c2)nnc1-c1cccnc1,-44%
9,CC(=O)Oc1ccc(N(C(C)=O)S(=O)(=O)c2cccs2)c2ccccc12,0.225%
10,CC(=O)CSc1ncnc2sc3c(c12)CCC3,-8.5%
11,O=C(/C=C/c1ccc(-c2ccccc2[N+](=O)[O-])o1)c1ccccc1,18.4%
12,CC(C)(C)n1ncc2c(=O)n(Cc3ccccc3Br)cnc21,-27.9%
13,Cc1ccc(C(=O)Nc2ccc(N3CCN(S(C)(=O)=O)CC3)cc2)cc1,4.23%
14,CCCNC(=O)c1cn(CC)c2cc(N3CCN(C(=O)c4ccco4)CC3)c(F)cc2c1=O,-67%
15,CCc1nn(-c2ccccc2)c(N)c1-c1ccc(OC)c(OC)c1,4.35%
16,c1ccc2c(c1)nc1n2CCN1,1.44%
17,COc1cc(C2NC(=O)NC(C)=C2[N+](=O)[O-])cc(OC)c1OC (stereo not drawn),9.03%
18,COc1cc(C(=O)NCc2ccco2)c(Br)c(OC)c1OC,-4.22%
19,Cc1ccc(S(=O)(=O)N2[C@@H](c3ccccc3F)C(C(=O)O)=CC[C@H]2c2ccc(Cl)c(Cl)c2)cc1,10.2%

row,Compound,"hERG current change (%, negative = inhibition) at 10uM"
1,COc1ccc(Cl)cc1C(=O)NCC(c1ccco1)N(C)C (stereo not drawn),-4.19%
2,Cc1ccc(S(=O)(=O)N/N=C/c2cccn2-c2ccc(Cl)cc2)cc1,-9.61%
3,O=C(NCc1ccccc1Cl)c1ccc2c(=O)n(CCCN3CCCC3=O)c(=S)[nH]c2c1,-8.83%
4,O=C(COC(=O)C1=COCCO1)Nc1ncc(Cl)cc1Cl,-6.27%
5,CC(C)CSc1nnc2[nH]c(=O)cc(N)n12,6.36%
6,CCCCc1c(O)nc(SCC(=O)Nc2ccc3c(c2)CCC3)[nH]c1=O,6.63%
7,CCOC(=O)c1ccc(NS(=O)C23CC4CC(CC(C4)C2)C3)cc1 (stereo not drawn),11.2%
8,CCn1c(COc2ccccc2)nnc1SCC(=O)c1cccc([N+](=O)[O-])c1,-45.2%
9,C#CC(C)(CC)NC(=O)c1cc(OC)c(OC)c(OC)c1 (stereo not drawn),7.83%
10,COc1ccc([N+](=O)[O-])cc1NC(=O)C(C)OC(=O)c1cccnc1Cl (stereo not drawn),-19.6%
11,CC1CCCN(C(=O)Nc2ccc(Br)cc2Cl)C1 (stereo not drawn),-16.4%
12,COc1ccc(-c2noc(CSc3nnc(CCc4ccccc4)n3-c3ccccc3)n2)cc1OC,-11%
13,COc1ccc(CCNC(=O)CS(=O)Cc2nc(-c3cccs3)oc2C)cc1OC (stereo not drawn),-11.9%
14,N#Cc1c(Nc2ccccc2C(F)(F)F)s[nH]c1=O,8.33%
15,OCC(C#CCN1CCCCC1)NCc1ccccc1 (stereo not drawn),13.9%
16,COc1ccc(C(=S)Nc2ccccc2)cc1,12.5%
17,Cc1nc2sc(C(c3ccco3)N3CCC4(CC3)OCCO4)c(O)n2n1 (stereo not drawn),13%
18,O=C(CC(=O)c1ccccc1)Nc1ccccn1,11.7%
19,O=C(COC(=O)C1CC1)Nc1ccc(Cl)cc1Cl,15.4%

row,Compound,"hERG current change (%, negative = inhibition) at 10uM"
1,O=C(COC(=O)c1ccc(F)cc1Cl)NC(=O)NC1CCCC1,-5.3%
2,Cc1ccc(S(=O)(=O)NC(C(=O)Oc2ccc3c(C(F)(F)F)cc(=O)oc3c2)c2ccccc2)cc1 (stereo not drawn),3.04%
3,CC(C)C(=O)Nc1nnn(C)n1,0.556%
4,Cc1ccc2c(C)nc(Nc3nc(CSc4nnnn4-c4ccccc4)cc(=O)[nH]3)nc2c1,-37.6%
5,Cn1nc(C(=O)Nc2cccc(C(F)(F)F)c2)c2ccccc2c1=O,10.2%
6,CCCCC(=NCCc1c(C)[nH]c2ccc(OC)cc12)C1=C(O)CC(c2ccccc2)CC1=O (stereo not drawn),-0.374%
7,COc1cc(OC)c(OC)cc1CN1CCC(O)CC1.Cl,16.1%
8,C=CCNC(=O)C(C)Sc1ccc(Cl)cc1 (stereo not drawn),0.00948%
9,CCOc1cc(/C=N/NC(=O)c2cccnc2)ccc1OCC(=O)N1CCOCC1,-7.96%
10,COc1ccccc1OCCNC(=O)c1ccc2c(c1)OCCO2,10%
11,O=C(NC1CC1)c1cc(-c2ccc(Br)cc2)nc2ccccc12,0.545%
12,CC(=O)Nc1n[nH]c(S(=O)(=O)Cc2ccc(Cl)cc2Cl)n1,5.99%
13,CC(Sc1ncn[nH]1)C(=O)Nc1ccc(Cl)cn1 (stereo not drawn),2.06%
14,CC(=O)Nc1ccc(NC(=O)C(C)OC(=O)CNS(=O)(=O)c2ccc(Br)cc2Cl)cc1 (stereo not drawn),8.47%
15,CCCSc1nnc(CSc2nc3ccccc3s2)n1-c1ccccc1,-4.12%
16,O=C(NCc1cc([N+](=O)[O-])ccc1O)c1cc(-c2ccncc2)nc2ccccc12,-22.5%
17,CCOC(=O)N1CCC(NC(=O)C2CCCN(S(=O)(=O)c3cccnc3)C2)CC1 (stereo not drawn),4.47%
18,CC(C)(C)NC(=O)NC(=O)COC(=O)Cc1coc2ccc3ccccc3c12,-7.95%
19,Cc1nn(-c2ccccc2)c(C)c1NC(=O)COC(=O)CCCOc1ccccc1,6.69%
